Assay results: PMC4336329 (PLoS ONE, 2015)
In all, about 310,000 compounds went through this assay and about 14,000 (4.5%) showed an effect of 50% or more. Effects have a minus sign here. The list shows a part of the results.

Molecular target: human ether-à-go-go-related gene (hERG) potassium channel (human, UniProt Q12809)
Test: primary screen, population patch clamp on CHO cells stably expressing hERG
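Also: peak tail current of the secondary pulse compared with the same well before compound.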

Chain of human ether-à-go-go-related gene (hERG) potassium channel (Q12809 whole entry, looked up): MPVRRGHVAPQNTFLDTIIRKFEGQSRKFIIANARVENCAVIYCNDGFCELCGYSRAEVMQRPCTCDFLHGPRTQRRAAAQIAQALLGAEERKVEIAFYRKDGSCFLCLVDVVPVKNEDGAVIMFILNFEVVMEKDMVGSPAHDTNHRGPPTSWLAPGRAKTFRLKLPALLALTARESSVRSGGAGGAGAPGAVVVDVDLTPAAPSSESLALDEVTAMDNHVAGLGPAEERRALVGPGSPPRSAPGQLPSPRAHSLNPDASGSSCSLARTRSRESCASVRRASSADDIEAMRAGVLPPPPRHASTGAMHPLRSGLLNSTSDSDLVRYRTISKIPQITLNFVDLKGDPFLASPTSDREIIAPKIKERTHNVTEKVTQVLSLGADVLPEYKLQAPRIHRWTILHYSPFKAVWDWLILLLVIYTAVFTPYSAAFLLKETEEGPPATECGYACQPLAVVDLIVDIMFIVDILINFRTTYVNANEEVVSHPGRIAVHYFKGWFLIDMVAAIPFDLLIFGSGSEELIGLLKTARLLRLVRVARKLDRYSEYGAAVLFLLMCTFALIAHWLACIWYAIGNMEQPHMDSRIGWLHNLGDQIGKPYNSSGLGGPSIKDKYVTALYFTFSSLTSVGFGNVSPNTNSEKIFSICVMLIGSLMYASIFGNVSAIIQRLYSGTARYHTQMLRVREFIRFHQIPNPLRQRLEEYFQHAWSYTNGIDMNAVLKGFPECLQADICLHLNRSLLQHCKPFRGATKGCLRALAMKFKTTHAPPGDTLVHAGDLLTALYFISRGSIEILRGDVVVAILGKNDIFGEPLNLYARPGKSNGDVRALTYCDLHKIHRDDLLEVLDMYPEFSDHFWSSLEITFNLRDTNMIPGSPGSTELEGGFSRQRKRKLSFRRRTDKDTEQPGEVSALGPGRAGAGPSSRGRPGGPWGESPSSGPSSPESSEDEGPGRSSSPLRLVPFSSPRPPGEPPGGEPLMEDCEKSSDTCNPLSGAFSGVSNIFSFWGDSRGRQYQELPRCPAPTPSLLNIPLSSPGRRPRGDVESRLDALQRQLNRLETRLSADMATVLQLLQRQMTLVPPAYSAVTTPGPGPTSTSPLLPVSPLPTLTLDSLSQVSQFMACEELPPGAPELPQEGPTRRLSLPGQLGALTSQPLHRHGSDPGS

Compared with `O=C(c1ccco1)c1cn(Cc2ccccc2Cl)c2ccccc12`, `Cc1nn(CC(=O)NCc2cccc3ccccc23)c(=O)c2ccccc12` is lower in “hERG current change (%, negative = inhibition) at 10uM” value: 22.7% for the first, 15.5% for the second.

Going from `CCOC(=O)c1c(-c2ccc(-c3ccccc3)cc2)csc1NC(=O)CNCCN(C)C.Cl` to `CCOC(=O)CC(=O)CSc1nc(-c2ccccc2)cc(-c2ccc(Cl)cc2)c1C#N`, the “hERG current change (%, negative = inhibition) at 10uM” value rises from -22.6% to 11.6%.

Going from `Cc1nc2sccn2c(=O)c1S(=O)(=O)Nc1ccc(N2CCN(S(C)(=O)=O)CC2)cc1` to `CCC(C)NC(=O)Cn1cc(S(=O)(=O)N2CCN(c3ccccc3F)CC2)c2ccccc2c1=O` (stereo not shown), the “hERG current change (%, negative = inhibition) at 10uM” value falls from -2.74% to -4.4%.

First: O=c1[nH]ncc(N/N=C\c2ccc(O)cc2O)c1Cl
Second: Brc1ccccc1/C=N/Nc1ccc2ccccc2n1
The “hERG current change (%, negative = inhibition) at 10uM” value of the first is lower: 6.72% for the first, 6.86% for the second.

First: O=C(c1ccc([N+](=O)[O-])o1)N1CCN(Cc2ccccc2)CC1
Second: COc1cc(C(=S)N2CCOCC2)ccc1OC(=O)c1ccccc1[N+](=O)[O-]
The “hERG current change (%, negative = inhibition) at 10uM” value of the first is higher: 2.99% for the first, 0.202% for the second.

Going from `COc1ccc(/C=C(\NC(=O)c2ccco2)C(=O)NCc2ccco2)cc1` to `COc1ccc(N(C(=O)c2ccco2)S(=O)(=O)c2cc(OC)ccc2OC)cc1`, the “hERG current change (%, negative = inhibition) at 10uM” value falls from 8.89% to -19.3%.

Compared with `C#CCNC(=O)C1=C[C@@H](c2ccc(C#C)cc2)C[C@@H](OCCCCO)O1`, `CCCCN(C)CCCNC(=O)c1ccc2c(c1)NC(=O)C(N1CCOCC1)S2` (stereo not shown) is higher in “hERG current change (%, negative = inhibition) at 10uM” value: -3.88% for the first, 12.1% for the second.

Going from `O=Cc1ccc(OCC(=O)NCC2CCCO2)cc1` (stereo not shown) to `O=C(NCC1CCCO1)c1cc2n(n1)C(C(F)(F)F)CC(c1ccc(F)cc1)N2` (stereo not shown), the “hERG current change (%, negative = inhibition) at 10uM” value falls from 14.2% to -15.4%.

First: CC1(C)CC(=O)C=C(NCCO)C1
Second: CN=CC1=C(O)C(C(=O)OC)C(C)(C)CC1=O (stereo not shown)
The “hERG current change (%, negative = inhibition) at 10uM” value of the first is lower: -0.4% for the first, 22.6% for the second.

Compared with `COCC(=O)N1CCC(Oc2ccc(C(=O)NCCCC3CCCC3)cc2)CC1`, `CCc1ccc(-c2nnn(CC(=O)N(C3CCCC3)C3CCS(=O)(=O)C3)n2)cc1` (stereo not shown) is higher in “hERG current change (%, negative = inhibition) at 10uM” value: -71.5% for the first, 2.13% for the second.

Compared with `NNC(=O)Cn1nc2n(c1=O)-c1ccccc1SC2`, `Cc1ccc(C)c(NC(=O)CN2C(=O)c3ccccc3C2=O)c1` is lower in “hERG current change (%, negative = inhibition) at 10uM” value: 27.3% for the first, 18.1% for the second.

First: CC(=O)N1c2ccc(S(=O)(=O)NCCC(=O)Nc3ccc(OC(F)(F)F)cc3)cc2CC1C (stereo not shown)
Second: O=C(Nc1ccc(-n2ccc(C(F)(F)F)n2)cc1)Nc1cccc(Cl)c1
The “hERG current change (%, negative = inhibition) at 10uM” value of the first is lower: -13.6% for the first, 14.7% for the second.

Going from `CCc1nnc(NC(=O)CN2C(=O)CCC2=O)s1` to `COc1ccc(/C=C2\SC(=O)N(CCc3nnc(N)s3)C2=O)cc1`, the “hERG current change (%, negative = inhibition) at 10uM” value falls from 16.3% to -10.9%.

Compared with `O=C(Nc1cccc(C(=O)O)c1)/C(=C\c1ccc2c(c1)OCO2)NC(=O)c1ccccc1Cl`, `COc1cccc(C(=O)NCC(=O)N/N=C/c2ccc3c(c2)OCO3)c1` is lower in “hERG current change (%, negative = inhibition) at 10uM” value: 3.5% for the first, -5.63% for the second.

Going from `CC(C)NC(=O)COc1coc(CN2CCN(c3ccccc3F)CC2)cc1=O` to `O=C(CCn1nc(-c2ccccc2)ccc1=O)N1CCN(c2ccccn2)CC1`, the “hERG current change (%, negative = inhibition) at 10uM” value falls from 12.8% to -53.1%.

Compared with `Cc1cc(C)n(C(CC(=O)O)C(=O)O)n1` (stereo not shown), `CS(=O)(=O)N(CC(=O)O)Cc1cccc(CN(CC(=O)O)S(C)(=O)=O)c1` is lower in “hERG current change (%, negative = inhibition) at 10uM” value: 16% for the first, 6.35% for the second.

Going from `Fc1ccc(-c2nc3c(-c4ccccc4)cnn3cc2CCN2CCOCC2)cc1` to `O=C(CCc1nc(-c2ccccc2F)no1)NC1CCN(Cc2ccccc2)CC1`, the “hERG current change (%, negative = inhibition) at 10uM” value falls from -15.2% to -46.4%.

Compared with `COc1ccc(CCNC(=O)CCc2ccccc2)cc1OC`, `CCCc1ccc(C(=O)NNc2cccc(C)c2)cc1` is lower in “hERG current change (%, negative = inhibition) at 10uM” value: 3.43% for the first, 2.49% for the second.

Going from `Cc1ccc(CN2Cc3cccc4c3[C@@H](CC2=O)[C@H](O)[C@H](O)C4)cc1` to `Cc1ccc(CN(C)C(=O)c2c(C)nn(-c3ccccc3)c2C)cc1`, the “hERG current change (%, negative = inhibition) at 10uM” value falls from 19.6% to 8.12%.

First: COc1cccc(N2CCN(C(=O)c3oc4ccccc4c3NC(=O)CCc3cc(OC)no3)CC2)c1
Second: CCOC(=O)C1CCN(c2nc(-c3ccccc3)nc3c2oc2ccccc23)CC1.Cl
The “hERG current change (%, negative = inhibition) at 10uM” value of the first is lower: -36.3% for the first, 2.29% for the second.

Compared with `Cc1cccn2c(=O)c3cc(C(=O)N4CCN(C(=O)c5ccco5)CC4)n(C)c3nc12`, `Cc1ccc(NC(=O)c2ccco2)c(NC(=O)c2ccccc2C)c1` is higher in “hERG current change (%, negative = inhibition) at 10uM” value: -22.4% for the first, 17.9% for the second.

Going from `CCCN1C2=NCCN2c2cc(C)c(C)cc21.Cl` to `CC1CCN(C(=O)c2cc(-c3ccccc3O)on2)CC1`, the “hERG current change (%, negative = inhibition) at 10uM” value rises from -30.7% to 13.4%.

Compared with `C=C1N2CCC(CC2)C1(O)c1ccc(C)cc1.Cl` (stereo not shown), `Cc1ccc(S(=O)(=O)Nc2cccc(C(=O)N3CCC(C(N)=O)CC3)c2)cc1` is higher in “hERG current change (%, negative = inhibition) at 10uM” value: -1.04% for the first, -0.822% for the second.

First: Cc1ccc2c(c1N)C(=O)c1ccccc1C2=O
Second: Cc1cc(OCC(=O)N(C)c2c(N)n(Cc3ccccc3)c(=O)[nH]c2=O)c(C(C)C)cc1Cl
The “hERG current change (%, negative = inhibition) at 10uM” value of the first is higher: 18.5% for the first, 5.98% for the second.

First: CC1CCN(Cc2c(C(=O)N/N=C/c3ccc(C(F)(F)F)cc3)nnn2-c2nonc2N)CC1
Second: Cc1ccc(Cn2nnnc2CN2CCC(NC(=O)c3ccc(Br)cc3)CC2)cc1
The “hERG current change (%, negative = inhibition) at 10uM” value of the first is higher: -1.89% for the first, -44.7% for the second.

Going from `O=C(NCCC1CCCCN1S(=O)(=O)c1ccc(Cl)cc1)C(=O)NCc1ccco1` (stereo not shown) to `Cc1ccc(NC(=O)CNc2cccc(S(=O)(=O)N3CCCC3)c2)cc1F`, the “hERG current change (%, negative = inhibition) at 10uM” value rises from -19.6% to -0.0102%.

Going from `N/C(=N\[N+](=O)[O-])N1CCN(C(=O)OC2CCCC2)CC1` to `O=C(C1CCCN(Cc2ccccc2[N+](=O)[O-])C1)N1CCCC1.O=C(O)C(=O)O` (stereo not shown), the “hERG current change (%, negative = inhibition) at 10uM” value falls from 19.4% to 11.4%.

Going from `CC[C@@]12C(=O)N(c3ccc(C)cc3)C(=O)N1[C@H](c1ccc(OC)cc1)[C@@H]1C(=O)N(C(C)(C)C)C(=O)[C@@H]12` to `CCC1(c2ccc(Cl)cc2)NC(=O)N(Cc2ccc(C(=O)OC)cc2)C1=O` (stereo not shown), the “hERG current change (%, negative = inhibition) at 10uM” value rises from 1.6% to 15.4%.

Compared with `CCOc1cc2c(cc1OCC)-n1cccc1C(c1cccc(F)c1F)NC2.Cl` (stereo not shown), `COc1ccccc1C(=O)N1CC(=O)Nc2ccc(F)cc2C1c1ccccc1` (stereo not shown) is lower in “hERG current change (%, negative = inhibition) at 10uM” value: 9.96% for the first, -7.83% for the second.

First: O=C(CN(c1ccc(F)cc1)S(=O)(=O)c1ccc2c(c1)OCCO2)NCc1ccccn1
Second: Cn1c(=O)oc2cc(S(=O)(=O)N3CCCC(C(=O)Nc4ccc5c(c4)OCCO5)C3)ccc21 (stereo not shown)
The “hERG current change (%, negative = inhibition) at 10uM” value of the first is lower: -24.6% for the first, -9.9% for the second.

Compared with `Cc1ccccc1C1C(C#N)=C2N=C(N)c3c(sc4c3CCCCC4)N2C2=C1C(=O)CCC2` (stereo not shown), `Cc1csc(NC(=O)c2cccc(S(=O)(=O)N3CCCCC3)c2)n1` is lower in “hERG current change (%, negative = inhibition) at 10uM” value: -10.1% for the first, -26.7% for the second.

Going from `O=C(NCc1ccccn1)C1CC(c2ccc(Cl)c(Cl)c2)=NO1` (stereo not shown) to `O=C1C=C(c2cccc(Cl)c2O)C[C@@H](c2ccc(Cl)cc2)C1`, the “hERG current change (%, negative = inhibition) at 10uM” value falls from 6.08% to -0.771%.

Going from `CCC1=Nc2cc(C(=O)NCCCN3CCN(C)CC3)ccc2Sc2ccccc21` to `O=C(c1cnn2ccccc12)N1CCCc2ccccc21`, the “hERG current change (%, negative = inhibition) at 10uM” value falls from 20.2% to -14.2%.

Compared with `Cc1ccc(Nc2nc(-c3sc(NC(=O)c4ccc([N+](=O)[O-])cc4)nc3C)cs2)cc1`, `COc1ccc(-n2c(O)c(/C=N/NS(=O)(=O)c3ccc(C)cc3)c3ccccc3c2=O)cc1OC` is lower in “hERG current change (%, negative = inhibition) at 10uM” value: 14% for the first, -8.65% for the second.

Compared with `Cc1cc(OCC(=O)NNC(=S)NC(=O)c2ccc(Br)o2)ccc1Cl`, `O=C(Nc1ccc(N2CCCC2)cc1)c1cccc(Cl)c1Cl` is higher in “hERG current change (%, negative = inhibition) at 10uM” value: 14.7% for the first, 23.8% for the second.

Going from `COCCNC(=O)C(C)OC(=O)c1nsc(Cl)c1Cl` (stereo not shown) to `COc1ccc2c(c1OC)C(=O)N1C2SC(C)(C)[C@H]1C(=O)NC(C)C` (stereo partly shown), the “hERG current change (%, negative = inhibition) at 10uM” value rises from -0.412% to 22.6%.

First: CN(C(=O)COC(=O)c1ccc2c(c1)OCO2)C1CCS(=O)(=O)C1 (stereo not shown)
Second: NC(=O)C1CCN(CC(=O)NCc2ccccc2)CC1
The “hERG current change (%, negative = inhibition) at 10uM” value of the first is higher: 9.31% for the first, 4.54% for the second.

Compared with `CCCC1(c2ccccc2)NC(=O)NC1=O` (stereo not shown), `O=C(Cn1cnc([N+](=O)[O-])n1)c1ccccc1` is lower in “hERG current change (%, negative = inhibition) at 10uM” value: 22.6% for the first, 18.7% for the second.

Going from `O=c1c([N+](=O)[O-])c(N2CCCC2)c2ccccc2n1-c1ccccc1` to `O=C(Cn1nnc(-c2ccccc2)n1)N=Nc1c(O)[nH]c2ccccc12`, the “hERG current change (%, negative = inhibition) at 10uM” value rises from -6.38% to 22.8%.

Compared with `CCc1ccc(-c2cc(C(=O)N3N=C(C(F)F)CC3(O)C(F)F)c3ccccc3n2)cc1` (stereo not shown), `O=C(CSc1nc2ccccc2c(=O)[nH]1)c1cccs1` is higher in “hERG current change (%, negative = inhibition) at 10uM” value: -15.7% for the first, 8.81% for the second.

First: CC(C)C(=O)Nc1ccc2nn(-c3ccc(F)cc3)nc2c1
Second: NC(=O)C1CCN(C2CC(=O)N(c3ccc(F)c(Cl)c3)C2=O)CC1 (stereo not shown)
The “hERG current change (%, negative = inhibition) at 10uM” value of the first is lower: -1.67% for the first, 4.25% for the second.

Compared with `CS(=O)(=O)N1CCCC(C(=O)Nc2ccccc2Cl)C1` (stereo not shown), `N#CCC(=O)N1CCCCCC1` is lower in “hERG current change (%, negative = inhibition) at 10uM” value: 38.6% for the first, -13.6% for the second.

For `C=CCn1c(SCC(=O)NCc2ccco2)nc2sc(C)c(C)c2c1=O`, the “hERG current change (%, negative = inhibition) at 10uM” value was 3.62%.
